From ChEMBL document CHEMBL1201862, “PubChem BioAssay data set” (2004) come the findings set out here.

Where “and” joins values, the source holds several entries; their conditions need not be identical. Equal values may be shown once.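 Five compound concentrations were applied to cells in 96-well plates for 48 hours; endpoints were derived by simple linear interpolation of the resulting dose-response curve. GI50: concentration for 50% inhibition of growth.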 Calls of active or inactive are those of the source. Cut-off read from the data, not from the text of the source: active = GI50 up to about 1.1 µM and inactive = higher. Bounds are passed on as bounds.

The subject of the test is NCI-H322M. Put plainly: growth of human tumour cells (NCI), 48 h.
Regarding `c1ccc(-c2sc(-c3ccccc3)c3c2C2CCC3C2)cc1`, the GI50 is inactive: 52.1 µM.

For the compound `CC(=O)NC1=C(C)C(=O)c2c(nc3n2CCC3OC(=O)CCl)C1=O` (stereo not drawn), the GI50 is inactive: 17.4 µM.

For `COC(=O)C(C(=O)C(=O)NC1Nc2ccc(C)cc2S1)c1nc2ccc(Cl)cc2nc1O` (stereo not drawn), the GI50 was inactive: > 100 µM.

Consider `CC(=O)OCC1OC(SC2=N/C(=C\c3ccc(Br)s3)C(=O)N2c2ccccc2)C(OC(C)=O)C(OC(C)=O)C1OC(C)=O` (stereo not drawn), for which the GI50 was inactive: 81.7 µM and inactive: 77.8 µM.

In the case of `CC(C)=CC(=O)Oc1ccc([N+](=O)[O-])cc1`, the GI50 is inactive: > 100 µM.

For `CC(C)CCCC(C)C1CCC2C3CC([N+](=O)[O-])=C4CC(O)CCC4(C)C3CCC12C` (stereo not drawn), the GI50 is inactive: 14.9 µM.

In the case of `C[Si](C)(C)C1(Sc2ccccc2)SCCCS1`, the GI50 was inactive: 44.2 µM.

As to `N#Cc1nn(-c2ccc(Cl)cc2)c(=N)c2c(N)n3nc(-c4ccccc4)cc3nc12`, the GI50 is active: 1 µM.

As to `Cc1nc(-n2nc(-c3ccccc3)cc2-c2ccccc2)sc1C(/C=C\c1ccc([N+](=O)[O-])cc1)=N/NC(=S)NN`, the GI50 is inactive: > 54.1 µM.

On to `CCOC(=O)/C(=C/c1ccc[nH]1)P(=O)(OCC)OCC`, for which the GI50 is inactive: > 100 µM.

Take `CCC(=C(c1ccc(OCc2ccccc2)cc1)c1ccc(OCc2ccccc2)cc1)c1ccc(OC)cc1`: the GI50 is inactive: > 100 µM.

`CC(=O)n1nc(-c2ccccc2)n(/N=C/c2ccc([N+](=O)[O-])o2)c1=O`: the GI50 is inactive: 1.67 µM.

For the compound `COc1cc2ccc(CC#N)cc2cc1OC`, the GI50 was inactive: > 100 µM.

In the case of `COc1cc(C2SCC(=O)N2c2ccccn2)cc(OC)c1OC` (stereo not drawn), the GI50 was inactive: > 100 µM.

In the case of `COc1ccc2nc3cc(Cl)ccc3c(NCCCN(Cc3cc(OC)c(OC)c(OC)c3)Cc3cc(OC)c(OC)c(OC)c3)c2c1`, the GI50 was inactive: 11.3 µM.

Turning to `Fc1ccc(Nc2nnc(-c3ccccn3)s2)cc1`, the GI50 is inactive: > 100 µM.

With `O=C1C2C(C(=O)N1O)N(Cc1ccccc1)C(=O)N2Cc1ccccc1` (stereo not drawn), the GI50 was inactive: > 100 µM.

Take `O=C(/C=C/c1c(O)ccc2ccccc12)c1cccc(O)c1`: the GI50 is inactive: > 100 µM.

`CC1OC(n2cc(Cl)c(=O)[nH]c2=O)C=C(OC(=O)c2ccccc2)C1=O` (stereo not drawn): the GI50 is inactive: > 100 µM.

For the compound `Cc1ccc(S(=O)(=O)NC(=O)NC(C(=O)O)C(C)O)cc1` (stereo not drawn), the GI50 is inactive: > 100 µM.

As to `NC1CCCCC1.O=P(O)(O)C(O)/C=C/c1ccccc1` (stereo not drawn), the GI50 is inactive: > 100 µM.

For `Cc1cc(N(CCC#N)S(=O)(=O)c2ccccc2)ccc1/C=C1\N=C(c2ccc(Cl)cc2)OC1=O`, the GI50 was inactive: > 100 µM.

For the compound `CN(c1ccccc1)c1cc2ccccc2nn1`, the GI50 was inactive: > 100 µM.

Regarding `C/C(=N\NC(=N)N)C(CN(C)C)C(c1ccccc1)c1c(O)c2ccccc2oc1=O` (stereo not drawn), the GI50 was inactive: > 100 µM.

Turning to `Cc1ccc(C(=O)NN=C(/N=N/c2cccc(C)c2)c2ccc(N(C)C)cc2)cc1`, the GI50 is inactive: > 100 µM.

With `O=C1COC(c2ccccc2O)=NN1CCCN1CCCC1`, the GI50 was inactive: > 100 µM.

Turning to `CN(O)C(=O)Cc1ccccc1`, the GI50 is inactive: > 100 µM.

Regarding `NC(=S)Nc1nnc(-c2ccc(-c3nnc(NC(N)=S)o3)cc2)o1`, the GI50 was inactive: > 100 µM.

In the case of `Cc1ccc(S(=O)(=O)Nn2c(O)c(C#N)c(-c3ccc([N+](=O)[O-])cc3)c(C#N)c2=O)cc1`, the GI50 is inactive: > 100 µM.

Turning to `CCOC(=O)/C(O)=C1\C(=O)N(C)C(=O)C1c1cccc(OC)c1` (stereo not drawn), the GI50 is inactive: > 92 µM.

Regarding `CCOC(=O)c1cn2c(n1)sc1cc([N+](=O)[O-])ccc12`, the GI50 was inactive: > 100 µM.

Take `CC(=O)OC(C)(C)CCC(=O)[C@](C)(O)[C@H]1[C@H](O)C[C@@]2(C)[C@@H]3CC=C4C(C)=C(OC5OC(CO)C(O)C(O)C5O)C(=O)C[C@@H]4[C@]3(C)C(=O)C[C@]12C` (stereo partly drawn): the GI50 was inactive: > 100 µM.

On to `CCOC(=O)C1=C(C)N(c2ccc(Cl)cc2)C2(O)C=CC(Nc3ccc(Cl)cc3)=C3C(=O)N(c4ccccc4)C(=O)C312` (stereo not drawn), for which the GI50 is inactive: 16.1 µM.

As for `C=C1C[C@@H]2O[C@H]3[C@H]4[C@@H](C[C@@H](C)[C@@H](OC(C)=O)[C@H]42)[C@@H](C)CO[C@@]3(C)[C@H](OC(=O)CCCCCCC)C[C@H]1O`, the GI50 is inactive: 17.7 µM.

In the case of `Cc1nc(Nc2ccccc2Cl)sc1C(=O)CC(=O)C(=O)Nc1c(Cl)cccc1Cl`, the GI50 was inactive: 38.8 µM.

Consider `C#CCNC(CS)C(=O)O` (stereo not drawn), for which the GI50 was inactive: > 100 µM.

Take `NC(=S)Nc1c(S(N)(=O)=O)cc(S(N)(=O)=O)c(Cl)c1Cl`: the GI50 was inactive: > 100 µM.

Turning to `CCCC1(NC(=O)C(F)(F)F)CC(OC)OC2COC(c3ccccc3)OC21` (stereo not drawn), the GI50 was inactive: > 100 µM.

On to `CN(C)C(=S)OC(Cn1cncn1)c1ccc(Cl)cc1Cl` (stereo not drawn), for which the GI50 is inactive: > 100 µM.

For `CC1C2CC(C(S(=O)(=O)O)C2=O)C1(C)C` (stereo not drawn), the GI50 was inactive: > 100 µM.

As to `CCCc1cc(=O)oc2c3c(c4c(c12)OC(C)(C)CC4)O[C@@H](C)[C@H](C)[C@H]3O`, the GI50 was inactive: 19.9 µM.

`O=C1C(c2ccccc2)=[N+]([O-])c2cc([N+](=O)[O-])c(/C(Cl)=C/c3ccccc3)cc21`: the GI50 is inactive: 54.5 µM.

For `O=C(O)C(O)c1ccc(F)cc1` (stereo not drawn), the GI50 is inactive: > 100 µM.

For the compound `CCOC(=O)NC(Nc1ccc(C(=O)O)cc1)(C(F)(F)F)C(F)(F)F`, the GI50 is inactive: > 100 µM.

As to `Cc1cc(Cl)cc2c1NC(=O)C2(O)C(C)C(=O)c1ccc(Cl)cc1` (stereo not drawn), the GI50 was inactive: > 80.2 µM.

Consider `CN(C)/C=C(\C(=O)c1ccccc1)n1nc(-c2ccccc2)cc1-c1ccccc1`, for which the GI50 was inactive: > 10 µM.

Regarding `c1ccc2[nH]c(-c3nc4ccccc4o3)nc2c1`, the GI50 is inactive: > 100 µM.

Turning to `CC1(C)SC2C(NC(=O)C(C(=O)O)c3ccccc3)C(=O)N2C1C(=O)O` (stereo not drawn), the GI50 is inactive: > 100 µM.

In the case of `CC(C)=CCC/C(=C/CC/C(=C\CCc1ccoc1)C(=O)O)C(=O)O`, the GI50 was inactive: > 100 µM.

In the case of `CC(=O)O[C@H]1C[C@@H](O[C@H]2[C@@H](O)C[C@H](O[C@H]3[C@@H](O)C[C@H](O[C@H]4CC[C@@]5(C)[C@H](CC[C@@H]6[C@@H]5C[C@@H](O)[C@]5(C)[C@@H](C7=CC(=O)OC7)CC[C@]65O)C4)O[C@@H]3C)O[C@@H]2C)O[C@H](C)[C@H]1O.CC(=O)O[C@H]1[C@@H](O)C[C@@H](O[C@H]2[C@@H](O)C[C@H](O[C@H]3[C@@H](O)C[C@H](O[C@H]4CC[C@@]5(C)[C@H](CC[C@@H]6[C@@H]5C[C@@H](O)[C@]5(C)[C@@H](C7=CC(=O)OC7)CC[C@]65O)C4)O[C@@H]3C)O[C@@H]2C)O[C@@H]1C`, the GI50 was active: 0.0293 µM.

Take `CC1(C)C(=NNC(=O)C[N+](C)(C)C)C(C)(C)C1=NNC(=O)C[N+](C)(C)C`: the GI50 is inactive: > 100 µM.

Turning to `CNc1cccc(-c2cc(O)c3cc4c(cc3n2)OCO4)c1`, the GI50 was active: 0.526 µM.

Regarding `Cc1ccc(NC(=O)c2cccc([N+](=O)[O-])c2O)c([N+](=O)[O-])c1`, the GI50 is inactive: 19.8 µM.
